In all, about 2,900 compounds were measured (“NF-kB SEAP reporter activity, fold change vs agonist alone”: median about 0.99, highest 2% from about 2.6 on). The list shows a part of the results.

The subject of assay [1] is RAW-Dual. Put plainly: NF-kB SEAP reporter activity, fold change vs agonist alone; cytotoxicity flag (confluency mask): not cytotoxic; higher = enhanced NF-kB activity. In outline: (§1)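 Supernatant from RAW-Dual macrophages was read after 20 hours for IRF by QuantiLuc luminescence and for NF-κB by QuantiBlue absorbance at 620 nm. The cells (50,000 cells/well in DMEM, 384-well plates, 37 °C, 5% CO2) had received 50 nL of library stock by pin tool and, 1 h later, a PRR agonist. Reporter activity is expressed relative to agonist-alone wells as fold change, and wells were flagged cytotoxic if IncuCyte confluency was under 70% of agonist controls in both mask sets.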

Assay [2] has as its system RAW-Dual. Put plainly: NF-kB SEAP reporter activity, fold change vs agonist alone; higher = enhanced NF-kB activity. In outline: as §1
Assay [3] has as its system RAW-Dual. As to the kind of experiment: NF-kB SEAP reporter activity, fold change vs agonist alone; cytotoxicity flag (confluency mask): cytotoxic (confluency <70% of control); higher = enhanced NF-kB activity. In outline: as §1
[4] abbreviates: agonist: ODN 1826 (TLR9) 0.5 ug/mL.
Setting [5] is: agonist: Pam2CSK4 (TLR2/6) 0.1 ug/mL.
Setting [6] is: agonist: Pam3CSK4 (TLR2/1) 0.1 ug/mL.
[7] abbreviates: library stock concentration (final ~1000-fold dilution): 10 mM, cytotoxicity flag (confluency mask): not cytotoxic, agonist: Imiquimod (TLR7) […].
Setting [8] is: library stock concentration (final ~1000-fold dilution): 10 mM, cytotoxicity flag (confluency mask): not cytotoxic, agonist: MPLA (TLR4) […].
[9] abbreviates: library stock concentration (final ~1000-fold dilution): 10 mM, cytotoxicity flag (confluency mask): cytotoxic (confluency <70% of control), agonist: Imiquimod (TLR7) […].
Setting [10] is: library stock concentration (final ~1000-fold dilution): 10 mM, cytotoxicity flag (confluency mask): cytotoxic (confluency <70% of control), agonist: MPLA (TLR4) […].

On to `O=C1c2c(O)cc(O)cc2OC(c2ccc(O)c(O)c2)C1O` (stereo unspecified) (library stock concentration (final ~1000-fold dilution): 10 mM), for which the “NF-kB SEAP reporter activity” value with RAW-Dual [1] (agonist: LPS (TLR4) 0.1 ug/mL) was 1.11; in the assay on RAW-Dual [1] (setting [4]), 0.966; in the assay on RAW-Dual [1] (setting [5]) it was 0.869; in the assay with RAW-Dual [1] (setting [6]) it was 0.93.
Regarding `O=C1c2c(O)cc(O)cc2OC(c2ccc(O)c(O)c2)C1O` (stereo unspecified), the “NF-kB SEAP reporter activity” value is 0.89 in the assay with RAW-Dual [2] (setting [7]) and 0.902 in the assay with RAW-Dual [2] (setting [8]).
Consider `FC(F)(F)c1ccc(/C=C/c2nc(COc3ccc(CCCCn4ccnn4)cc3)co2)cc1` (library stock concentration (final ~1000-fold dilution): 10 mM), for which the “NF-kB SEAP reporter activity” value in the assay on RAW-Dual [1] (agonist: LPS (TLR4) 0.1 ug/mL) is 1.29; in the assay with RAW-Dual [1] (setting [4]) it was 1.04; in the assay on RAW-Dual [1] (setting [5]) it was 0.706; in the assay with RAW-Dual [1] (setting [6]) it was 0.878.
On to `FC(F)(F)c1ccc(/C=C/c2nc(COc3ccc(CCCCn4ccnn4)cc3)co2)cc1`, for which the entries for the “NF-kB SEAP reporter activity” value with RAW-Dual [2] (setting [7]) and in the assay on RAW-Dual [2] (setting [8]) were 0.971 and 1.33, respectively.
As for `COc1cc2c(cc1OC)C1C(=O)c3ccc4c(c3OC1CO2)C=CC(C)(C)O4` (stereo unspecified), the “NF-kB SEAP reporter activity” value in the assay on RAW-Dual [2] (setting [7]) stood at 0.738; in the assay with RAW-Dual [2] (setting [8]), 1.28.
Regarding `COc1cc2c(cc1OC)C1C(=O)c3ccc4c(c3OC1CO2)C=CC(C)(C)O4` (stereo unspecified) (library stock concentration (final ~1000-fold dilution): 10 mM), the “NF-kB SEAP reporter activity” value with RAW-Dual [1] (agonist: LPS (TLR4) 0.1 ug/mL) turned out to be 1.9; with RAW-Dual [1] (setting [4]) it was 0.824; in the assay with RAW-Dual [1] (setting [5]), 0.347; in the assay on RAW-Dual [1] (setting [6]) it was 0.584.
In the same order, the values of `C#CCN(C)CCCOc1ccc(Cl)cc1Cl.Cl` (library stock concentration (final ~1000-fold dilution): 10 mM) are 0.954, 0.939, 0.906 and 0.907.
Turning to `C#CCN(C)CCCOc1ccc(Cl)cc1Cl.Cl`, the entries for the “NF-kB SEAP reporter activity” value in the assay on RAW-Dual [2] (setting [7]) and in the assay on RAW-Dual [2] (setting [8]) were 1.28 and 1.14, respectively.
As to `CC(Oc1cc(-c2cnn(C3CCNCC3)c2)cnc1N)c1c(Cl)ccc(F)c1Cl` (stereo unspecified), the “NF-kB SEAP reporter activity” value with RAW-Dual [2] (setting [9]) is 0.634; in the assay with RAW-Dual [2] (setting [10]), 1.05; in the assay on RAW-Dual [2] (setting [7]), 0.548; in the assay with RAW-Dual [2] (setting [8]), 0.515.
`CC(Oc1cc(-c2cnn(C3CCNCC3)c2)cnc1N)c1c(Cl)ccc(F)c1Cl` (stereo unspecified) (library stock concentration (final ~1000-fold dilution): 10 mM): the “NF-kB SEAP reporter activity” value turned out to be 0.223 in the assay with RAW-Dual [1] (agonist: LPS (TLR4) 0.1 ug/mL); 0.217 with RAW-Dual [1] (setting [4]); 0.144 with RAW-Dual [1] (setting [5]); 0.287 with RAW-Dual [1] (setting [6]); 0.721 with RAW-Dual [3] (agonist: LPS (TLR4) 0.1 ug/mL); 0.25 in the assay on RAW-Dual [3] (setting [4]). Besides, the results for the “NF-kB SEAP reporter activity” value in the assay with RAW-Dual [3] (setting [5]) and in the assay on RAW-Dual [3] (setting [6]) were 0.376 and 0.238, respectively.
As for `O=C(CCCCCCC(=O)N/N=C/c1ccc(N(c2ccccc2)c2ccccc2)cc1)NO` (library stock concentration (final ~1000-fold dilution): 10 mM), the “NF-kB SEAP reporter activity” value in the assay on RAW-Dual [3] (agonist: LPS (TLR4) 0.1 ug/mL) amounted to 5.47; with RAW-Dual [3] (setting [4]), 2.71; in the assay with RAW-Dual [3] (setting [5]) it was 1.09; in the assay on RAW-Dual [3] (setting [6]), 1.61.
As for `O=C(CCCCCCC(=O)N/N=C/c1ccc(N(c2ccccc2)c2ccccc2)cc1)NO`, the “NF-kB SEAP reporter activity” value in the assay with RAW-Dual [2] (setting [9]) worked out at 1.77; with RAW-Dual [2] (setting [10]) it was 2.3.
In the case of `O.O=C(O)c1ncccc1[O-].O=C([O-])c1ncccc1[O-].[H+].[O]=[V][OH]` (library stock concentration (final ~1000-fold dilution): 10 mM), the “NF-kB SEAP reporter activity” value in the assay on RAW-Dual [1] (agonist: LPS (TLR4) 0.1 ug/mL) was 1.32; with RAW-Dual [1] (setting [4]), 2.4; in the assay with RAW-Dual [1] (setting [5]) it was 1.24; in the assay on RAW-Dual [1] (setting [6]), 1.31.
For `O.O=C(O)c1ncccc1[O-].O=C([O-])c1ncccc1[O-].[H+].[O]=[V][OH]`, the “NF-kB SEAP reporter activity” value with RAW-Dual [2] (setting [7]) amounted to 1.41; in the assay on RAW-Dual [2] (setting [8]) it was 1.15.
`CC(OCC1(c2ccccc2)CCC2(CCC(=O)N2)CN1)c1cc(C(F)(F)F)cc(C(F)(F)F)c1` (stereo unspecified): in the assay with RAW-Dual [2] (setting [10]), the “NF-kB SEAP reporter activity” value was 0.603.
With `CC(OCC1(c2ccccc2)CCC2(CCC(=O)N2)CN1)c1cc(C(F)(F)F)cc(C(F)(F)F)c1` (stereo unspecified) (library stock concentration (final ~1000-fold dilution): 10 mM), the “NF-kB SEAP reporter activity” value in the assay with RAW-Dual [3] (agonist: LPS (TLR4) 0.1 ug/mL) was found to be 0.429; with RAW-Dual [3] (setting [4]), 0.421; in the assay with RAW-Dual [3] (setting [5]) it was 0.283; in the assay with RAW-Dual [3] (setting [6]) it was 0.261.
On to `C=C1C(=O)O[C@H]2[C@H]1CC/C(C)=C\CC[C@@]1(C)O[C@@H]21` (library stock concentration (final ~1000-fold dilution): 10 mM), for which the “NF-kB SEAP reporter activity” value amounted to 0.692 with RAW-Dual [1] (agonist: LPS (TLR4) 0.1 ug/mL), 0.285 in the assay on RAW-Dual [1] (setting [4]), 0.243 in the assay on RAW-Dual [1] (setting [5]) and 0.229 with RAW-Dual [1] (setting [6]).
With `C=C1C(=O)O[C@H]2[C@H]1CC/C(C)=C\CC[C@@]1(C)O[C@@H]21`, the “NF-kB SEAP reporter activity” value in the assay on RAW-Dual [2] (setting [7]) worked out at 1.01; with RAW-Dual [2] (setting [8]), 0.372.
In the same order, the values of `CCc1nc(C(N)=O)c(Nc2ccc(N3CCC(N4CCN(C)CC4)CC3)c(OC)c2)nc1NC1CCOCC1` are 0.887 and 1.24.
Regarding `CCc1nc(C(N)=O)c(Nc2ccc(N3CCC(N4CCN(C)CC4)CC3)c(OC)c2)nc1NC1CCOCC1` (library stock concentration (final ~1000-fold dilution): 10 mM), the “NF-kB SEAP reporter activity” value turned out to be 0.855 in the assay with RAW-Dual [1] (agonist: LPS (TLR4) 0.1 ug/mL), 0.273 in the assay on RAW-Dual [1] (setting [4]), 0.384 in the assay with RAW-Dual [1] (setting [5]) and 0.834 in the assay with RAW-Dual [1] (setting [6]).
As for `N=C(N)NCCN1CCCCCCC1.O=S(=O)(O)O`, the “NF-kB SEAP reporter activity” value in the assay with RAW-Dual [2] (library stock concentration (final ~1000-fold dilution): 10 mM water, cytotoxicity flag (confluency mask): not cytotoxic, agonist: MPLA (TLR4) […]) was 1.05.
Take `N=C(N)NCCN1CCCCCCC1.O=S(=O)(O)O` (library stock concentration (final ~1000-fold dilution): 10 mM water): the “NF-kB SEAP reporter activity” value was 1.13 in the assay with RAW-Dual [1] (agonist: LPS (TLR4) 0.1 ug/mL), 1.05 with RAW-Dual [1] (setting [4]), 1.06 in the assay with RAW-Dual [1] (setting [5]) and 0.972 in the assay on RAW-Dual [1] (setting [6]).
As to `COc1ccc(CC(=O)Nc2nc3c(s2)CCc2ccccc2-3)cc1OC`, the “NF-kB SEAP reporter activity” value in the assay with RAW-Dual [2] (setting [7]) was 0.987; in the assay with RAW-Dual [2] (setting [8]), 1.12.
Take `COc1ccc(CC(=O)Nc2nc3c(s2)CCc2ccccc2-3)cc1OC` (library stock concentration (final ~1000-fold dilution): 10 mM): the “NF-kB SEAP reporter activity” value with RAW-Dual [1] (agonist: LPS (TLR4) 0.1 ug/mL) was 1.22; in the assay with RAW-Dual [1] (setting [4]), 1.02; in the assay with RAW-Dual [1] (setting [5]), 0.644; with RAW-Dual [1] (setting [6]), 1.05.

Source of the values: the supplement of paper PMC10037445.
